# Data: publication PMC4336329 (PLoS ONE, 2015)
# Out of some 310,000 compounds screened, about 2,200 (0.71%) showed an effect of 50% or more. Effects have a minus sign here. The list shows a part of the results.
# Biological target: human ether-à-go-go-related gene (hERG) potassium channel (human, UniProt Q12809)
# Experiment: primary screen, population patch clamp on CHO cells stably expressing hERG
# Chain of human ether-à-go-go-related gene (hERG) potassium channel (Q12809 whole entry, looked up): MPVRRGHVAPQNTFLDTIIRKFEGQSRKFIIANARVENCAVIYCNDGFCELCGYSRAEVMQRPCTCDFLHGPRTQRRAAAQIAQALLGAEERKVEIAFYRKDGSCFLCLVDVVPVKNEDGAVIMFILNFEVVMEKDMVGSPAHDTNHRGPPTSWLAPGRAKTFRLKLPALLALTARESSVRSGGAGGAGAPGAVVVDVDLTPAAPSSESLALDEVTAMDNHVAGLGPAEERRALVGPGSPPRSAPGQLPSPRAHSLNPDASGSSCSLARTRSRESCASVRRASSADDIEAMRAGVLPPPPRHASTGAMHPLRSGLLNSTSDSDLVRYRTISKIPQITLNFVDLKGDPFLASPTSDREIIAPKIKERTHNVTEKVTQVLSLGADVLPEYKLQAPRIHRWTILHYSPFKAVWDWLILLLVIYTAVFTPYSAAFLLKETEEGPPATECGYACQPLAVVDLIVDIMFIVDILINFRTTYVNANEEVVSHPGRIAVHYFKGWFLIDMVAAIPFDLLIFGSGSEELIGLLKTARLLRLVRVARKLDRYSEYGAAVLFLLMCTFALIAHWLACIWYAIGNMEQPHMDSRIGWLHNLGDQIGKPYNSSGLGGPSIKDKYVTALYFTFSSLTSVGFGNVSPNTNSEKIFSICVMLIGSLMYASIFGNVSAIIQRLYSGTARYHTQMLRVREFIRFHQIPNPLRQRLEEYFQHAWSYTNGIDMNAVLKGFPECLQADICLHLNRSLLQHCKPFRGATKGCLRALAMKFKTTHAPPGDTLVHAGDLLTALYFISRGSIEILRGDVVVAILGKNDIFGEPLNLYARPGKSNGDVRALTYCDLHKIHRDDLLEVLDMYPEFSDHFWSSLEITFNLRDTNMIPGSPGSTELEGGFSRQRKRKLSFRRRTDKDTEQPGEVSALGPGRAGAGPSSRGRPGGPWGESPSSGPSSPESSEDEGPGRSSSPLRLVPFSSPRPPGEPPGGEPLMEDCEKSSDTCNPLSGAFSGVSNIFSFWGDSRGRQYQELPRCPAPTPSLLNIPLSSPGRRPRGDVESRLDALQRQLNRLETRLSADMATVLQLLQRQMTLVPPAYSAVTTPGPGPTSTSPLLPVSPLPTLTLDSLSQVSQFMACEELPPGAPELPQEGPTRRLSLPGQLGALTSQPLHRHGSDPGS
row,Compound,"hERG current change (%, negative = inhibition) at 1uM [%]"
1,COc1ccc(NC(=O)C(c2cc3c(cc2[N+](=O)[O-])OCO3)N(C)C)cc1 (stereo not drawn),0.793
2,O=[N+]([O-])c1ccc(CSc2ccc(S(=O)(=O)N3CCCC3)cn2)cc1,-3.77
3,O=C1CC(C(=O)N(c2ccc(F)cc2)C(C(=O)NC2CCCC2)c2ccccn2)CS1 (stereo not drawn),3.1
4,Cc1cc(C)nc(/N=C2\NC(=O)CC(C(=O)O)N2c2ccc(C)c(C)c2)n1 (stereo not drawn),11.7
5,O=C(CNc1cccc(S(=O)(=O)N2CCCC2)c1)Nc1cccc(F)c1,-2.43
6,O=C(CCl)N1CCN(S(=O)(=O)c2ccc3ccccc3c2)CC1,7.26
7,Cc1ccc(C(=O)OCC(=O)N2CCC(Cc3ccccc3)CC2)cc1N,10.6
8,O=C(CSc1nncn1-c1ccccc1)Nc1ccccc1F,12.3
9,O=C1CC(c2ccccc2)C(C(=O)Nc2ccccc2F)N1 (stereo not drawn),10.6
10,Cc1ccccc1OCC(=O)NCCc1nc2ccccc2[nH]1,-4.84
11,Cc1ccc2c(CN(C)Cc3cccc(F)c3)cc(=O)oc2c1,5.95
12,CC(C)(C)CC(C)(C)NCC(=O)Nc1c2c(nc3ccccc13)CCC2.O=C(O)C(=O)O,6.56
13,CCN1CCN(C(=O)C(C)Nc2cc(Cl)c(OC)cc2OC)CC1 (stereo not drawn),17.8
14,CN(C)c1ccc(NC(=O)CCCCCn2nnc3ccccc3c2=O)cc1,11.4
15,c1csc(-c2noc(CN3CCc4sccc4C3)n2)c1,20
16,CCn1c(-c2ccccc2)c[nH]c1=S,11.2
17,Cc1ccc(C(=O)NNC(=O)CCCN2C(=O)/C(=C/c3ccccc3Cl)SC2=S)cc1,10.4
18,On1c(-c2ccco2)nc2c1CCc1nonc1-2,10.5
19,CCOC(=O)C1CCC2(CC1)C(C#N)=C(N)Oc1n[nH]c(C)c12 (stereo not drawn),9.18
20,O=C(CSc1nc2ccccc2c(=O)[nH]1)Nc1ccc(C(=O)O)cc1,6.74
21,COc1ccccc1NC(=O)COC(=O)c1cc2ccccc2cc1O,-1.33
22,CCC(=O)Nc1nnc(SCC(=O)NCc2ccc3c(c2)OCO3)s1,-3.86
23,CC(C)NC(=O)c1ccccc1NC(=O)/C=C/c1cccc([N+](=O)[O-])c1,13.3

row,Compound,"hERG current change (%, negative = inhibition) at 1uM [%]"
1,COc1ccc(C(CC(=O)NCc2ccccc2)Sc2n[nH]c(-c3ccc(Cl)cc3)n2)cc1 (stereo not drawn),7.3
2,CCOC(=O)c1c(C)nc2ncccn12,2.38
3,CCNC(=S)Nc1cccc([N+](=O)[O-])c1,-5.89
4,CCOc1cc(S(=O)(=O)NCc2ccccc2)ccc1F,7.08
5,O=c1c2ccccc2[nH]c(=S)n1CCCN1CCN(c2ccccc2)CC1,14
6,CC(C)CC(=O)NC(=S)Nc1ccccc1F,4.66
7,Cc1cc(Cl)ccc1OCCCC(=O)OCC(=O)Nc1cccc(S(N)(=O)=O)c1,-1.55
8,Cc1ccc(NC(=O)CCc2c[nH]c3ccccc23)nc1,6.01
9,O=C(Nc1ccccc1N1CCN(C(=O)c2ccccc2)CC1)c1ccc(Br)o1,-26
10,CCOCCCNC(=O)c1ccc(OC(C)=O)cc1,2.78
11,O=c1[nH]nnc2sc3c(c12)CCCC3,1.46
12,CN1C(=O)CSc2ccc(NC(=O)N3CCOCC3)cc21,-1.98
13,Cc1ccc(NC(=O)CSc2ccc(S(=O)(=O)N3CCCC3)cn2)cc1F,14.5
14,CCCCCCn1c(=O)c(F)cn(Cc2ccc(OC)c([N+](=O)[O-])c2)c1=O,-9.85
15,COc1ccc(N2CCN(C(=O)Cn3ncc4c([nH]c5ccccc54)c3=O)CC2)cc1,11.7
16,CCOc1ccc(NC(=O)c2sccc2-n2cccc2)cc1,15.8
17,CCN(CC)C(=O)CSc1nc(-c2ccco2)cc(C(F)(F)F)c1C#N,11.8
18,Cc1cc(C)c(NC(=O)CSc2nc(COc3ccccc3)nc3ccccc23)c(C)c1,16.6
19,C[C@H](O)[C@@]1(O)CC[C@H]2[C@@H]3CC[C@@H]4C[C@H](O)CC[C@]4(C)[C@H]3CC[C@@]21C,0.717
20,C[C@H](NC(=O)[C@H]1N2C(=O)c3ccccc3C2SC1(C)C)C(=O)N1CCCCC1 (stereo partly drawn),27.9
21,CN(C)S(=O)(=O)c1cccc(C(=O)OCC(=O)NC2CCCc3ccccc32)c1 (stereo not drawn),2.42
22,O=C(c1ccccn1)c1cc2ccccc2n1S(=O)(=O)c1ccccc1,15.9
